# ChEMBL document CHEMBL1156636, “Reductive heme-dependent activation of the n-oxide prodrug AQ4N by nitric oxide synthase” (J Med Chem, 2008)
# Key:
# [1] = test system: C[N+](C)([O-])CCNc1ccc(NCC[N+](C)(C)[O-])c2c1C(=O)c1c(O)ccc(O)c1C2=O; settings: Homo sapiens
# N=C(N)NCCC[C@H](N)C(=O)O = settings: Homo sapiens
substance,measurement,setting,value
"Nitric oxide synthase, inducible (Homo sapiens) (sequence left out)",Km,[1],130 µM
same,Km,N=C(N)NCCC[C@H](N)C(=O)O,2.8 µM
